Test results reported in article PMC9911399, “Two distinct binding modes provide the RNA-binding protein RbFox with extraordinary sequence specificity”.
Substitutions are numbered along the chain they refer to; changes in the protein carry UniProt numbers. The list shows a part of the results.

T1: RBFOX1 RRM (Homo sapiens, UniProt Q9NWB1 109-208)
T1 sequence: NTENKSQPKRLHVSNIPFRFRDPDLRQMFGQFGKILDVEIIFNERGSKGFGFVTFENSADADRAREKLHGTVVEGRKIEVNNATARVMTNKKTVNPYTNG

B1: GGGAGGU (DNA:RNA)
RNA: GGGAGACCGGAAUUCAGAUUGUCCGGGAGGUUUAAAUCCCGUCGUAGCCACCA
DNA 1: CAATCTGAATTCCGGTCTCCC
DNA 2: TGGTGGCTACGACGGGATT
B2: CCCUGCG (DNA:RNA)
RNA: B1 RNA with G25C, G26C, G27C, A28U, G30C, U31G
DNA 1: CAATCTGAATTCCGGTCTCCC
DNA 2: TGGTGGCTACGACGGGATT
B3: GCACAGA (DNA:RNA)
RNA: B1 RNA with G26C, G27A, A28C, G29A, U31A
DNA 1: CAATCTGAATTCCGGTCTCCC
DNA 2: TGGTGGCTACGACGGGATT
B4: CACGCGU (DNA:RNA)
RNA: B1 RNA with G25C, G26A, G27C, A28G, G29C
DNA 1: CAATCTGAATTCCGGTCTCCC
DNA 2: TGGTGGCTACGACGGGATT
B5: CGAGGGC (DNA:RNA)
RNA: B1 RNA with G25C, G27A, A28G, U31C
DNA 1: CAATCTGAATTCCGGTCTCCC
DNA 2: TGGTGGCTACGACGGGATT
B6: CGCGCUC (DNA:RNA)
RNA: B1 RNA with G25C, G27C, A28G, G29C, G30U, U31C
DNA 1: CAATCTGAATTCCGGTCTCCC
DNA 2: TGGTGGCTACGACGGGATT
B7: GAGUUAA (DNA:RNA)
RNA: B1 RNA with G26A, A28U, G29U, G30A, U31A
DNA 1: CAATCTGAATTCCGGTCTCCC
DNA 2: TGGTGGCTACGACGGGATT
B8: CUACAUC (DNA:RNA)
RNA: GGGAGACCGGAAUUCAGAUUGUCCCUACAUCUUAAAUCCCGUCGUAGCCACCA
DNA 1: CAATCTGAATTCCGGTCTCCC
DNA 2: TGGTGGCTACGACGGGATT
B9: UUCGAGU (DNA:RNA)
RNA: B8 RNA with C25U, A27C, C28G, U30G, C31U
DNA 1: CAATCTGAATTCCGGTCTCCC
DNA 2: TGGTGGCTACGACGGGATT
B10: UCCUGUA (DNA:RNA)
RNA: B8 RNA with C25U, U26C, A27C, C28U, A29G, C31A
DNA 1: CAATCTGAATTCCGGTCTCCC
DNA 2: TGGTGGCTACGACGGGATT
B11: CAAUGUA (DNA:RNA)
RNA: B8 RNA with U26A, C28U, A29G, C31A
DNA 1: CAATCTGAATTCCGGTCTCCC
DNA 2: TGGTGGCTACGACGGGATT
B12: UAGUUGC (DNA:RNA)
RNA: B1 RNA with G25U, G26A, A28U, G29U, U31C
DNA 1: CAATCTGAATTCCGGTCTCCC
DNA 2: TGGTGGCTACGACGGGATT
B13: CUAUGGU (DNA:RNA)
RNA: B8 RNA with C28U, A29G, U30G, C31U
DNA 1: CAATCTGAATTCCGGTCTCCC
DNA 2: TGGTGGCTACGACGGGATT
B14: UACGAAA (DNA:RNA)
RNA: B8 RNA with C25U, U26A, A27C, C28G, U30A, C31A
DNA 1: CAATCTGAATTCCGGTCTCCC
DNA 2: TGGTGGCTACGACGGGATT
B15: ACAGUAG (DNA:RNA)
RNA: B8 RNA with C25A, U26C, C28G, A29U, U30A, C31G
DNA 1: CAATCTGAATTCCGGTCTCCC
DNA 2: TGGTGGCTACGACGGGATT
B16: CACUCAC (DNA:RNA)
RNA: B8 RNA with U26A, A27C, C28U, A29C, U30A
DNA 1: CAATCTGAATTCCGGTCTCCC
DNA 2: TGGTGGCTACGACGGGATT
B17: AGACCCA (DNA:RNA)
RNA: B8 RNA with C25A, U26G, A29C, U30C, C31A
DNA 1: CAATCTGAATTCCGGTCTCCC
DNA 2: TGGTGGCTACGACGGGATT
B18: CUCCGCG (DNA:RNA)
RNA: B8 RNA with A27C, A29G, U30C, C31G
DNA 1: CAATCTGAATTCCGGTCTCCC
DNA 2: TGGTGGCTACGACGGGATT
B19: AACUGCU (DNA:RNA)
RNA: B1 RNA with G25A, G26A, G27C, A28U, G30C
DNA 1: CAATCTGAATTCCGGTCTCCC
DNA 2: TGGTGGCTACGACGGGATT
B20: UCUGGUC (DNA:RNA)
RNA: B8 RNA with C25U, U26C, A27U, C28G, A29G
DNA 1: CAATCTGAATTCCGGTCTCCC
DNA 2: TGGTGGCTACGACGGGATT

The binders below were run against T1, RBFOX1 RRM (assay: EMSA; HiTS-Eq, 1 nM pool, 10 min; buffer printed only for the single-RNA assays: 10 mM Tris pH 7.5, 150 mM NaCl, 3.4 mM EDTA, 0.001% NP-40, 30 C). Details: tags: His6 N-terminal (pET28a); label: 5' 32P.
Summary of the method: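 Purified wild-type or mutant RbFox RRM at increasing concentrations was equilibrated with 1 nM of 5′-radiolabelled RNA carrying 7 randomized nucleotides for 10 min in 50 µL. Unbound RNA was separated by 8% native PAGE and sequenced. Relative association constants came from read-count changes of each RNA species compared with the control reaction, normalised to the cognate motif.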

Binder	binding signal
B1	0.0199 KA relative to UGCAUGU
B2	0.0142 KA relative to UGCAUGU
B3	0.0103 KA relative to UGCAUGU
B4	0.00634 KA relative to UGCAUGU
B5	0.00599 KA relative to UGCAUGU
B6	0.0135 KA relative to UGCAUGU
B7	0.00396 KA relative to UGCAUGU
B8	0.00247 KA relative to UGCAUGU
B9	0.0155 KA relative to UGCAUGU
B10	0.00677 KA relative to UGCAUGU
B11	0.00174 KA relative to UGCAUGU
B12	0.0221 KA relative to UGCAUGU
B13	0.0125 KA relative to UGCAUGU
B14	0.00779 KA relative to UGCAUGU
B15	0.00453 KA relative to UGCAUGU
B16	0.00248 KA relative to UGCAUGU
B17	0.000354 KA relative to UGCAUGU
B18	0.00395 KA relative to UGCAUGU
B19	0.00531 KA relative to UGCAUGU
B20	0.0173 KA relative to UGCAUGU
